# The whole screen tested about 110,000 compounds, of which about 230 (0.21%) showed an effect of 50% or more. The list shows a part of the results.
# Molecular target: DPAP1 (Plasmodium falciparum, UniProt Q8IIJ9)
# Experiment: primary screen, percent inhibition; read by cleavage of a fluorogenic dipeptide substrate; higher = more effect of the substance
# Set-up: species or system P. falciparum D10 trophozoite lysates; single well
# 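Note: 30 min substrate incubation versus DMSO and 10 µM JCP410 controls.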
# Chain of DPAP1 (Q8IIJ9 whole entry, looked up): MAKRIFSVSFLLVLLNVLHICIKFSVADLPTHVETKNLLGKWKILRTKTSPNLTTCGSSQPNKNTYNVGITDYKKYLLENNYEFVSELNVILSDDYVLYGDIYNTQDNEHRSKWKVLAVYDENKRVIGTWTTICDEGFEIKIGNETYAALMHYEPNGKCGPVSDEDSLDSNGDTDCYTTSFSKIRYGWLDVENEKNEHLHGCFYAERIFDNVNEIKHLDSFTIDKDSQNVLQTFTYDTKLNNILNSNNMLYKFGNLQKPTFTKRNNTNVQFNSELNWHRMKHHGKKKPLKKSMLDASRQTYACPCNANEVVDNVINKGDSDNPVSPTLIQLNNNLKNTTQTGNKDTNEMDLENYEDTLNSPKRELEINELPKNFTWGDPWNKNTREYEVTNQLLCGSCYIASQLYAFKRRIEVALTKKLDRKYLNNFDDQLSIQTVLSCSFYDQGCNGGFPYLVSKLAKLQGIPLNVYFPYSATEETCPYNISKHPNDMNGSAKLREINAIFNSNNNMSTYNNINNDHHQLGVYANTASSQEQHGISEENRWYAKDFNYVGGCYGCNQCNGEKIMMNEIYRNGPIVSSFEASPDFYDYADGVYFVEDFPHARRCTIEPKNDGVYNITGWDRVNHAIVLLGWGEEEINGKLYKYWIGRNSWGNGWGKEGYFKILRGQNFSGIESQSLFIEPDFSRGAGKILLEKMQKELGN
row,Compound,% Inhibition @ 10 uM [%]
1,NC(=O)COc1ccccc1/C=C1/SC(=O)N(CC(=O)N2CCCCC2)C1=O,2.17
2,COc1ccccc1C(=O)Nc1ccc2ncccc2c1,2.7
3,O=C(Nc1ccc(F)cc1)NC1CCCCC1,-5.84
4,CCN(CC)C(=O)c1cc2cc(Br)ccc2oc1=O,-1.25
5,COc1cc(-c2nnc3sc(/C=C/c4ccco4)nn23)cc(OC)c1OC,6.01
6,Cc1cccc(C(=O)N2CCN(C/C=C/c3ccccc3)CC2)c1,1.4
7,COc1cc(OC)cc(-n2nnc(-c3nc(-c4cccnc4)no3)c2N)c1,3.98
8,c1ccc(Oc2ncnc3sc4c(c23)CCCC4)cc1,-0.0267
9,O=C1OC(c2ccc(Oc3ccccc3)cc2)=C/C1=C\c1ccco1,-0.169
10,O=C(c1cccnc1)N1CCN(Cc2ccc3ccccc3c2)CC1,7.1
11,Cc1ccc(/C(O)=C/c2nc3ccccc3oc2=O)cc1,-4.43
12,CCc1ccc(-n2nnc(-c3nsc(NC(=O)c4cccs4)n3)c2C)cc1,5.88
13,CCc1ccccc1-n1nnc(-c2ccccc2)n1,-1.71
14,COc1ccccc1CNC(=O)CCc1nnc2n(Cc3ccccc3)c(=O)c3ccccc3n12,-2.42
15,c1ccc(N2CCN(Cc3c[nH]c4ccccc34)CC2)cc1,12.3
16,COc1ccc2sc3ccccc3c(=O)c2c1OC,-1.32
17,CC1(C)Oc2ccc3ccc(=O)oc3c2-c2cnoc21,3.73
18,Cc1[nH]c2ccccc2c1SCCNC(=O)c1ccc(OC(C)C)cc1,-4.86
19,COc1ccc(OC)c(CN2CCN(Cc3ccccc3OC)CC2)c1,-6.59
20,CCOc1ccccc1N1CCN(Cc2ccc(Br)s2)CC1,-7.5
21,Cc1c2cnn(CC(=O)NCCN(C)C)c(=O)c2c(C)n1Cc1ccccc1Cl,-0.447
22,CCOC(=O)N1CCN(c2c(N3CCCC(C)C3)c(=O)c2=O)CC1 (stereo not drawn),-1.44
23,COCCNC(=O)c1cc2n(n1)C(C(F)(F)F)CC(c1ccc(F)cc1)N2 (stereo not drawn),0.751
24,CCOC(=O)c1c(NC(=O)COc2cc(C)c(Cl)c(C)c2)sc(C(C)=O)c1C,12.5
25,O=C(COc1ccccc1)Nc1ccc(Cl)cn1,2.32
26,CCOc1ccc(N/C=C2\C(=O)CNC2=O)cc1,1.35

row,Compound,% Inhibition @ 10 uM [%]
1,C=CCO/C(O)=C1/C(C)=Nc2ncnn2C1c1ccc(OC)c(Br)c1 (stereo not drawn),1.73
2,CC(C)CN(CC(C)C)c1nc2c(S(=O)(=O)c3ccccc3)nnn2c2ccccc12,1.51
3,O=C1ON=C(c2ccccc2)/C1=C/c1ccc(Br)s1,-2.87
4,CCSc1ncc(Cl)c(C(=O)NCc2ccc3c(c2)OCO3)n1,-2.85
5,O=C(CN1C(=O)CSc2ncccc21)NCCCN1CCC(Cc2ccccc2)CC1,2.65
6,CC(=O)c1ccc(NC(=O)COc2ccc(Cl)cc2Br)cc1,4.39
7,CC(C)Cc1ccc(C(C)C(=O)N2CCN(C)CC2)cc1 (stereo not drawn),-0.446
8,CC(=O)Nc1ccc(N(C)C)c(C(C)(C)C)c1,-6.41
9,CCOC(=O)c1c(-c2ccccc2)csc1NC(=O)c1cc(CC(C)C)on1,3.55
10,Cc1nc(N2CCN(c3ccccn3)CC2)c2c(C)c(C(=O)N3CC(C)CC(C)C3)sc2n1 (stereo not drawn),5.59
11,CCOc1nc(-c2cccc(OC)c2)ccc1-c1noc(C)n1,-3.13
12,CN1CCC(N(C)Cc2ccc([N+](=O)[O-])o2)CC1,-0.828
13,Cc1ccc(CCNC(=O)C2CCN(S(=O)(=O)N3CCCCC3)CC2)cc1,-3.12
14,Cc1ccsc1/C=C1\SC(c2ccccc2)=NC1=O,16
15,COC(=O)c1nnn(-c2ccc(OC)cc2)c1C(=O)OC,3.48
16,CCN(CC)CCCNC(=O)C1c2ccccc2C(=O)N(CCOC)C1c1cn(C)c2ccccc12 (stereo not drawn),2.35
17,O=C(CN1C(=O)C2C3CCC(C3)C2C1=O)Nc1ccccc1C(=O)O (stereo not drawn),-0.425
18,CCCc1cc(O)n2nc(-c3ccc(OC)cc3)cc2n1,1.52
19,CCn1c2ccccc2c2cc(CN3CC(C)CC(C)C3)ccc21 (stereo not drawn),-2.34
20,CC(C)(C)c1cc(NC(=O)CSc2n[nH]c(N)n2)cc(C(C)(C)C)c1,0.823
21,Cc1cc(C)c2nc(C)c(CN(C)C3CCCCC3)c(O)c2c1,0.487
22,COc1ccc(C(=O)Nc2sc3c(c2C(=O)O)CC(C)(C)OC3)cc1,1.61
23,CC1=C(C#N)C(C(F)(F)F)(C(F)(F)F)NC(c2ccncc2)=N1,-3.19
24,O=C(C1=C(O)C(=O)N(c2ccc(CCO)cc2)C1c1cccnc1)c1ccco1 (stereo not drawn),-3.25
25,CC(N)Cc1ccccc1Sc1ccccc1O (stereo not drawn),-4.54
26,O=C(NCc1cccnc1)c1ccc(COc2cccc3ccccc23)o1,7.76

row,Compound,% Inhibition @ 10 uM [%]
1,CCN(CC)C(=O)C1CCCN(Cc2cc(Br)cs2)C1 (stereo not drawn),-2.81
2,Cc1ccc(/C=C(\C#N)c2nc(-c3ccc(C)cc3)cs2)cc1,-4.08
3,Cc1ccc2c(=O)c(C(=O)c3cccc(Cl)c3)cn(CC(=O)NCCC3=CCCCC3)c2n1,1.02
4,CC(C)OP(=O)(Cc1cccc(C#N)c1)OC(C)C,3.06
5,CC1CCN(S(=O)(=O)c2ccc3c(ccn3CC(=O)O)c2)CC1,1.42
6,CCN(CC)S(=O)(=O)c1ccc(NC(=O)C(C)Oc2ccc(Cl)cc2Cl)cc1 (stereo not drawn),1.62
7,Cc1ccc(-n2nnc3c(=O)n(Cc4ccc(C(F)(F)F)cc4)cnc32)cc1,-2.16
8,CCOC(=O)C1=C(CS(=O)(=O)c2ccc(F)c(C)c2)NC(=O)NC1c1ccc(OCC)cc1 (stereo not drawn),-0.431
9,CCC(C)NC(=O)CN(c1ccc(OC)cc1OC)S(C)(=O)=O (stereo not drawn),3.67
10,O=C(Nc1nc(C(F)(F)F)c(-c2ccccc2)s1)c1ccccc1F,6.5
11,COc1ccc(C(=O)C2=C(O)C(=O)N(Cc3cccnc3)C2c2cccc(Br)c2)c(C)c1 (stereo not drawn),-1.6
12,CCN(CC)S(=O)(=O)c1c(Br)cc(C)cc1Br,3.42
13,CC(CP(=O)(O)O)NC(=O)Cc1ccccc1 (stereo not drawn),-0.615
14,COCCn1c(Cc2cccn2C)nnc1SCC(=O)NC1CCCCC1,-3.37
15,C=CC[n+]1c(C)c2cc(Cl)c(Cl)cc2n1C,-0.85
16,CN(C)CC(C)(C)CNC1CCC(c2ccccc2)CC1 (stereo not drawn),0.472
17,CCOC(=O)c1[nH]cc(-c2ccccc2)c1N1CCOCC1,0.708
18,CCOc1ccccc1C(=O)Nc1ccccc1Br,-5.82
19,CCn1c(=O)c(C(=O)Nc2nc(-c3ccc(Cl)cc3)cs2)c(O)c2ccccc21,-2.22
20,Cc1nn(-c2nc3ccccc3s2)c(O)c1-c1cc(O)c2ccccc2n1,-4.68
21,CN(C1CCCCC1)S(=O)(=O)N1CCCC(C(=O)N2CCC(C(N)=O)CC2)C1 (stereo not drawn),-5.61
22,CCCCNC(=O)Cc1coc2ccc3ccccc3c12,-0.473
23,CCc1ccc(-n2nnc(-c3nsc(NC(=O)c4ccc(OC)cc4)n3)c2C)cc1,1.11
24,O=C(O)c1cc2n(n1)C(C(F)(F)F)CC(c1ccccc1)N2 (stereo not drawn),-1.32
25,CCOC(=O)C1CCN(C2CC3CCC2C3)CC1 (stereo not drawn),-2.95
26,Cc1cccc(OCCCN2CCCC2)c1,-0.546

row,Compound,% Inhibition @ 10 uM [%]
1,O=C1OC(c2ccc(-c3ccccc3)cc2)=N/C1=C\c1coc2ccccc2c1=O,3.64
2,N#CC1=C(N)Oc2cc(O)c(Cl)cc2C1c1ccccc1F (stereo not drawn),-1.25
3,O=C(CCn1cc(Br)cn1)Nc1ccn(Cc2ccccc2)n1,-2.85
4,CCNC(=O)/C(=C\c1ccc(OC)cc1)NC(=O)c1ccccc1Br,0.746
5,CCN(CC)c1ccc2c(c1)oc(=O)c1c(Cl)cc(=O)oc12,-3.5
6,COc1cccc(C2Nc3ccccc3N=C3CC(C)(C)CC(O)=C32)c1 (stereo not drawn),-4.4
7,Cc1cc(C(=O)NCC(C)c2ccccc2)c2c(C)nn(-c3ccccc3)c2n1 (stereo not drawn),0.44
8,N#Cc1c(N)nc2c(c1-c1ccsc1)CCCC2,-2.81
9,CCSc1nnc(NC(=O)CSc2nc3c(c(=O)n2C)SCC3)s1,0.205
10,C=CCNC(=O)/C(C#N)=C/c1c(Oc2ccc(Br)cc2)nc2c(C)cccn2c1=O,-7.04
11,Cc1cccn2c(=O)c(/C=N/C(C)c3ccccc3)c(NC(C)c3ccccc3)nc12 (stereo not drawn),-3.63
12,CCC1CCCCN1CCCNc1nc2ccccc2c2nc(-c3ccccc3)nn12 (stereo not drawn),0.981
13,CCN(CC)C(=O)c1sc(NC(=O)c2cc3ccccc3c(=O)o2)c(C(=O)OC(C)C)c1C,-3.13
14,CCCCc1ccc(-c2csc(/C(C#N)=C/c3ccco3)n2)cc1,4.63
15,Cc1ccnc(NC(=O)c2cccc(F)c2)c1,-1.19
16,Cc1nc2c(oc3ccccc32)c(=O)o1,10.9
17,COc1ccc(NC(=O)c2ccc(C)o2)c(OC)c1,4.11
18,CCSc1sc(CC)cc1C(N)=O,6.49
19,CCn1c2ccccc2c2nnc(NCc3ccccc3OC)nc21,-3.73
20,O=C(Cn1cnc2onc(-c3ccc(F)cc3)c2c1=O)N1CCN(Cc2ccccc2)CC1,-5.13
21,COc1ccc(OC)c(NC(=O)c2cncc(Br)c2)c1,-0.884
22,Nc1nc(Nc2ccccc2O)nc2ccccc12,-2.29
23,Cc1c2cnn(CC(=O)NC(C)C34CC5CC(CC(C5)C3)C4)c(=O)c2c(C)n1Cc1ccccc1 (stereo not drawn),-5.81
24,CCc1nc2ccc(C(=O)N3CCc4ccccc4C3)cc2nc1CC,-0.0785

# — PMC6919601, “Identification of Plasmodium dipeptidyl aminopeptidase allosteric inhibitors by high throughput screening” (PLoS ONE, 2019)
